# Test results published in patent US20170290925A1, “Conjugates And Conjugating Reagents” (priority 2014, published 2017).
# B1: conjugate 29: Brentuximab-drug conjugate prepared from conjugation reagent 13 (conjugate, chains of the INN, looked up)
# heavy: QIQLQQSGPEVVKPGASVKISCKASGYTFTDYYITWVKQKPGQGLEWIGWIYPGSGNTKYNEKFKGKATLTVDTSSSTAFMQLSSLTSEDTAVYFCANYGNYWFAYWGQGTQVTVSA[human IgG1 constant region not shown]
# light: DIVLTQSPASLAVSLGQRATISCKASQSVDFDGDSYMNWYQQKPGQPPKVLIYAASNLESGIPARFSGSGSGTDFTLNIHPVEEEDAATYYCQQSNEDPWTFGGGTKLEIKRTVAAPSVFIFPPSDEQLKSGTASVVCLLNNFYPREAKVQWKVDNALQSGNSQESVTEQDSKDSTYSLSSTLTLSKADYEKHKVYACEVTHQGLSSPVTKSFNRGEC
# modifications: drug conjugate from reagent 13
# Tested on: Karpas-299 cells (T-anaplastic large cell lymphoma, ALCL) xenograft
# Assay: Karpas-299 mouse xenograft study (Example 16)
# Type: in vivo, CB17-SCID mice
# Details: single i.v. injection at 1 mg/kg
# Procedure: Conjugates 28 and 29 were prepared from conjugation reagent 21 from Example 12 and conjugation reagent 13 from Example 10, respectively. Conjugations were carried out as described in Example 5.
# Healthy female CB17-SCID mice (CBySmn.CB17-Prkdcscid/J, Charles River Laboratories) with an average body weight of 18.9 g were used for cell inoculation (Day 0). 24 to 72 hours prior to tumour cell injection, the mice were y-irradiated (1.44 Gy, ^60Co). The animals were maintained in SPF health status according to the FELASA guidelines in housing rooms under controlled environmental conditions.
# Tumours were induced by subcutaneous injection of 10^7 Karpas-299 cells (T-anaplastic large cell lymphoma, ALCL) in 200 μL of RPMI 1640 into the right flank. Tumours were measured twice a week with calipers, and the volume was estimated using the formula: […]
# Fifteen days after tumour implantation (Day 15), the animals were randomized into groups of eight mice using Vivo manager® software (169 mm^3 mean tumor volume) and treatment was initiated. The animals from the vehicle group received a single intravenous (i.v.) injection of PBS. The treated groups were dosed with a single i.v. injection of ADC at 1 mg/kg.
# Treatment tolerability was assessed by bi-weekly body weight measurement and daily observation for clinical signs of treatment-related side effects. […]
molecule,measurement,value
B1,Effect on tumour volume,complete reduction in tumour volume for the duration of the study
